# Test results as given in the supplement of paper PMC9446081.
# The campaign covered roughly 39,000 compounds. About 220 (0.56%) showed activity. The list shows a part of the results.
# System: Escherichia coli K-12 BW25113
# Assay: relative growth (OD600 normalised to plate interquartile mean) (fraction); higher = less growth inhibition, active = 0.2 or less
# Details: 50 µM; LB; incubation time: overnight (16-24 h)
# 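Also: static incubation at 37 °C against the wild-type strain, values averaged over two biological replicates.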
row,SMILES,relative growth
1,CN1C[C@H](C(=O)N[C@]2(C)O[C@@]3(O)[C@@H]4CCCN4C(=O)[C@H](Cc4ccccc4)N3C2=O)C=C2c3cccc4[nH]cc(c34)C[C@H]21,inactive: 1.02
2,O=C(O)CN1C[C@@H]2C(NC(=O)c3ccno3)[C@H]2C1 (stereo partly drawn),inactive: 1.05
3,Cc1cccc(Cc2cnc[nH]2)c1C,inactive: 0.959
4,O=[As]O[As]=O (stereo not drawn),inactive: 1.08
5,O=c1[nH]c2ccccc2n1C1CCN(Cc2ccc(-c3nc4cc5[nH]cnc5cc4nc3-c3ccccc3)cc2)CC1,inactive: 1.09
6,Br.CN1C2CC(OC(=O)C(CO)c3ccccc3)CC1C(O)C2 (racemic),inactive: 1.11
7,CCC(C)C(=O)OC1CC2(C)C(c3ccoc3)OC(=O)CC23OC2(C)OC34C(OC(C)=O)C3(O)C(OC(=O)C5(C)OC5C)C5(C)CC3(O)C(C)(C5CC(=O)OC)C14O2 (stereo not drawn),inactive: 0.745
8,CN1CCC2(C)c3cc(O)ccc3N(C)C12.O=C(O)C=CC(=O)O (stereo not drawn),inactive: 0.961
9,CN1C(=O)N(C)C2C1N(C)C(=O)N2C (stereo not drawn),inactive: 1.01
10,COc1ccc(N=[N+]=[N-])cc1,inactive: 1.01
11,COC(=O)C[C@H]1CC[C@@H]2NC[C@H](O)COC[C@H]2O1,inactive: 1.04
12,O=C(O)CCCc1ccc(N(CCCl)CCCl)cc1,inactive: 1.01
13,CNC(=O)Oc1ccc2c(c1)C1(C)CCN(C)C1N2C (stereo not drawn),inactive: 1.07
14,O=C1CCCC2C3CC(CN12)C1CCCCN1C3.[O-][Cl+3]([O-])([O-])O (stereo not drawn),inactive: 1.18
15,COC(=O)C[C@H]1CC[C@@H]2NC[C@@H](O)COC[C@H]2O1,inactive: 0.999
16,Nc1c[n+](CCc2ccccc2)no1,inactive: 0.972
17,CN1CCOCC12CCN(c1ncccn1)CC2,inactive: 1.02
18,CCCCOC(=O)C1=CC(=O)CC(C)(C)O1,inactive: 0.979
19,O=c1[nH]c2ccccc2n1CCCN1CCC(n2c(=O)[nH]c3cc(Cl)ccc32)CC1,inactive: 1.16
20,CC(=O)c1c(O)cc(C)oc1=O,inactive: 0.951
21,CC(C)C[C@@H](NC(=O)[C@H](Cc1ccccc1)NC(=O)CNC(=O)[C@@H](C)NC(=O)[C@@H](N)Cc1ccc(O)cc1)C(=O)O,inactive: 0.981
22,CC(C)C12OC1C1OC13C1(C)CCC4=C(COC4=O)C1CC1OC13C2O (stereo not drawn),inactive: 0.947
23,Cc1cc(O[C@@H]2O[C@H](CO)[C@@H](O)[C@H](O)[C@H]2O)c2c3c(c(=O)oc2c1)CCC3,inactive: 1.05
24,CC(C)C[C@@H](N)C1(c2ccc(Cl)cc2)CCC1,inactive: 0.938
25,c1cn(C[C@H]2CC[C@H]3NCCO[C@@H]23)cn1,inactive: 0.855
26,CN1[C@@H]2CC[C@H]1CNC(=O)C2,inactive: 1
27,C[C@@H]1[C@H](O)[C@@H](C)/C=C\C=C/CC\C=C/C=C\C=C/C=C\[C@@H](O[C@@H]2O[C@H](C)[C@@H](O)[C@H](N)[C@@H]2O)C[C@@H]2O[C@](O)(C[C@@H](O)[C@H](O)CC[C@@H](O)C[C@@H](O)C[C@@H](O)CC(=O)O[C@H]1C)C[C@H](O)[C@H]2C(=O)O,inactive: 1.01

row,SMILES,relative growth
1,CO[C@H]1[C@@H](O)C[C@@H](O[C@H]2[C@@H](O)C[C@@H](O[C@H]3[C@@H](O)C[C@@H](O[C@H]4CC[C@@]5(C)[C@@H](CC[C@H]6[C@@H]5C[C@@H](O)[C@@]5(C)[C@H](C7=CC(=O)OC7)CC[C@@]65O)C4)O[C@@H]3C)O[C@@H]2C)O[C@@H]1C,inactive: 1
2,Cc1ccc(N=CN(C)C=Nc2ccc(C)cc2C)c(C)c1,inactive: 1.03
3,CC(C)N(C)C[C@H]1CO[C@]2(CNCCOC2)C1,inactive: 1.04
4,CC(C)c1ccc2c(c1)[C@H](O)[C@H](N)CCO2,inactive: 0.876
5,CN(C)C(=O)C(CCN1CCC(O)(c2ccc(Cl)cc2)CC1)(c1ccccc1)c1ccccc1.Cl,inactive: 1.01
6,CC1=C[C@H]2O[C@@H]3[C@H](O)[C@@H](O[C@H]4O[C@H](CO)[C@@H](O)[C@H](O)[C@H]4O)[C@](C)([C@@]2(CO)CC1)[C@]31CO1,inactive: 0.947
7,CC[C@@H](C)C(=O)O[C@@H]1C[C@@]2(C)[C@H](c3ccoc3)OC(=O)C[C@]23O[C@@]2(C)O[C@]34[C@H](OC(=O)C(C)C)[C@@]3(O)[C@@H](OC(=O)[C@@]5(C)O[C@@H]5C)[C@@]5(C)C[C@]3(O)[C@@](C)([C@H]5CC(=O)OC)[C@@]14O2,inactive: 1.01
8,O=C([O-])Cc1ccccc1.[Na+],inactive: 0.934
9,CN1[C@@H]2CC[C@@H]1CC(N)C2 (stereo partly drawn),inactive: 1.01
10,N#CCCN.O=C(O)C=CC(=O)O,inactive: 0.891
11,C[N+](C)(C)CCCCCCCCCC[N+](C)(C)C.[Br-].[Br-],inactive: 1.05
12,Cl.NCCc1cc(O)c(O)cc1O,inactive: 1.04
13,Cc1ncc(CNC(=O)N(CCCl)[NH2+][O-])c(N)n1,inactive: 0.988
14,c1ccc(CN2CCNCC2)nc1,inactive: 1.01
15,C[C@H]1O[C@H](n2cnc3c(N)ncnc32)C[C@H]1O,inactive: 0.986
16,OCc1ccc2c(c1)OCO2,inactive: 1.03
17,CNc1ccc2oc(C[C@H]3O[C@@]4(CC[C@H]3C)O[C@H]([C@H](C)C(=O)c3ccc[nH]3)[C@H](C)C[C@H]4C)nc2c1C(=O)O,inactive: 0.962
18,NC1(c2ccc(Cl)cc2)CC1,inactive: 0.995
19,C[C@H](CO)N1C[C@H](C)[C@H](CN(C)C(=O)Oc2ccc3ccccc3c2)OCc2cnnn2CCCC1=O,inactive: 1.01
20,COc1cccc(C2(O)CCCCC2CN(C)C)c1.Cl (stereo not drawn),inactive: 1.03
21,COCCCNC(=O)[C@H]1N[C@H]2C[C@@H]1C[C@@H]2F,inactive: 0.957
22,C[C@H](N)Cn1ccc2cc(F)c(Cl)cc21,inactive: 0.987
23,CN1[C@@H]2CNc3ccccc3[C@@H]2[C@@H]1CO,inactive: 0.987
24,O=C1C=CC(=O)c2c(O)cccc21,inactive: 0.791
25,O=C(c1ccno1)N1C[C@@H]2CCN[C@@H]2C1,inactive: 0.932
26,[N-]=[N+]=Nc1ccccc1C[C@@]1(C(=O)NCc2ccccc2)N=C(c2ccc(OCCCO)cc2)O[C@@H]1c1ccccc1N=[N+]=[N-],inactive: 1.03
